Reference: PubChem BioAssay AID1240 (Sanford-Burnham Center for Chemical Genomics, 2008)
The campaign covered roughly 50,000 compounds. About 800 (1.6%) showed an effect of 50% or more. The list shows a part of the results.

What follows are molecules tested against Bcl-2-like protein 10 (Homo sapiens) (UniProt Q9HD36) (assay: TR3 peptide-Bcl-B binding displacers, biochemical primary FP assay, phenotype converters (AID 1240;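 further: 0% = Bcl-B with tracer peptide and DMSO and 100% = tracer peptide lacking Bcl-B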)). Settings: GST-Bcl-B / FITC-TR3 peptide fluorescence polarization; stronger effect = higher value; compound at 3.75 mg/L.
Sequence of UniProt Q9HD36 (Q9HD36 whole entry, looked up): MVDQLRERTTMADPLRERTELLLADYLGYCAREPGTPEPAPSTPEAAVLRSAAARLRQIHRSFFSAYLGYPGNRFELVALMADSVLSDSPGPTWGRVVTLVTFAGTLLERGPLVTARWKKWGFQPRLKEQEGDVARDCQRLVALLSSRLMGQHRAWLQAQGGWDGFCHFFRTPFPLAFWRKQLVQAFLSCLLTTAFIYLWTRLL
For `O=C(COc1ccc2ccccc2c1)N1CCN(C(=O)c2ccc([N+](=O)[O-])cc2)CC1`, the displacement was -12.7%.
Work on `COc1ccccc1OCCNc1nc2c(c(=O)n(C)c(=O)n2C)n1C` yielded a displacement of -5.3%.
Work on `Cc1ccc(OCC(=O)Nc2ccc(-c3nc4ncccc4o3)cc2)c(C)c1` yielded a displacement of -19.4%.
Molecule `COc1ccc2ccccc2c1C=Nc1ccc([N+](=O)[O-])cc1` has a displacement of -6.6%.
`Cc1sc2nc(SCC(=O)NCCCO)n(-c3ccccc3)c(=O)c2c1C` was tested, and the displacement was 4.3%.
For `CCCOc1ccc(N2C(=O)CC(N3CCN(Cc4ccc5c(c4)OCO5)CC3)C2=O)cc1` (stereo not given), the displacement was 9.8%.
`C=CCN1C(=O)/C(=C\c2ccc(OC)c(OC)c2OC)C(=O)NC1=S` showed a displacement of 1.2%.
Work on `Cc1cc(Br)c(-c2ccc(/C=C3/NC(=S)NC3=O)o2)cc1C` yielded a displacement of -36.3%.
Molecule `Cc1ccc(OCC(=O)Oc2ccc(C(=O)c3ccccc3)cc2C)c(C)c1` has a displacement of 8.7%.
For `COc1cc(/C=C2/SC(NC(C)=O)=NC2=O)cc(OC)c1OC`, the displacement was 31.2%.
With `O=C(Nc1cccc2nsnc12)c1ccccc1Br` the displacement was 20.9%.
`COc1ccc2ccccc2c1/C=C1\SC(=O)N(c2ccccc2)C1=O` gave a displacement of 4.4%.
`COc1ccc2c(c1OC)C(=O)N(c1cccc(F)c1)C2` was tested, and the displacement was -7.2%.
Work on `CS(=O)(=O)N1CCN(c2ccc([N+](=O)[O-])c(NCc3ccccc3)c2)CC1` yielded a displacement of 15.2%.
`O=C(CSc1ccccn1)c1ccc(-c2ccccc2)cc1` was tested, and the displacement was 3.5%.
`CC(C)c1ccc(/C=C/C(=O)Nn2cnnc2)cc1` gave a displacement of -4.8%.
Work on `Cc1ccc(NC(=O)Nc2cc(C)ccn2)cc1` yielded a displacement of -6.8%.
Work on `C=CCN1C(=O)c2ccccc2C1(O)c1ccc(C)cc1` (stereo not given) yielded a displacement of -9.7%.
`COC(=O)c1cccc(NC(=O)c2cc[n+]([O-])cc2)c1` showed a displacement of -0.4%.
With `CC12C(=O)C(C)(C(c3ccccc3)=C1c1ccccc1)C1C(=O)N(c3ccc([N+](=O)[O-])cc3)C(=O)C12` (stereo not given) the displacement was 7.8%.
`CCOc1ccc2nc(NC(=O)c3cccc(Cl)c3)sc2c1` showed a displacement of 10.9%.
`CC1(C)CC(NC(=O)c2ccccc2C(=O)O)CC(C)(C)N1` gave a displacement of 5.6%.
In the case of `CC(C)CN1C(=O)/C(=C/c2cccs2)SC1=S`, the displacement is reported as 6.4%.
Molecule `Cc1cc(=O)oc2cc(OC(=O)CCCOc3ccc(Cl)cc3Cl)ccc12` has a displacement of -0.8%.
In the case of `Cc1ccc2nsnc2c1NC(=O)/C=C/c1cccc([N+](=O)[O-])c1`, the displacement is reported as 4.3%.
`Cc1ccccc1NC(=O)c1cc(-c2ccccc2)nc2c(Cl)cccc12` gave a displacement of -13.6%.
`COc1ccc(C(=O)N2CCN(Cc3cc(OC)c(O)c(OC)c3)CC2)cc1` showed a displacement of -4.6%.
For `COc1ccc(-c2cn3ccccc3n2)cc1Br`, the displacement was 11.7%.
Molecule `CC1(C)C(c2ccco2)=[N+]([O-])C2(CCCCC/C2=N\O)N1O` (stereo not given) has a displacement of 0.4%.
`O=C(/C=C/c1cccc([N+](=O)[O-])c1)Nc1ccc(I)cc1Cl` showed a displacement of -0.1%.
For `O=C1NC(=O)/C(=C\c2ccc(Br)cc2)S1`, the displacement was 8.9%.
`COc1ccc(OC)c(NS(=O)(=O)c2c(C)cc(C)cc2C)c1` gave a displacement of -9%.
In the case of `Cc1ccc(NC(=O)C2CCC(C)(C(=O)NN)C2(C)C)cc1` (stereo not given), the displacement is reported as -5.7%.
For `CC(=O)n1c(SCC(=O)Nc2ccccc2)nc2ccccc21`, the displacement was -9%.
`O=C(c1ccc(Br)cc1)c1ccc2c(c1)OCCCO2` gave a displacement of 5.6%.
`Cc1cccc(/C(N)=N/OC(=O)c2ccc(I)cc2)c1` gave a displacement of 3.2%.
For `COc1ccc(N2C(=O)NC(=O)/C(=C/c3ccc(OCCOc4ccc(C)cc4)c(OC)c3)C2=O)cc1`, the displacement was 12.8%.
With `O=C1/C(=C/c2ccco2)SC(=S)N1CCc1ccccc1` the displacement was 32.4%.
`COc1ccc(-c2cc(C(=O)NN=Cc3c(O)ccc4ccccc34)[nH]n2)cc1` was tested, and the displacement was -12.2%.
`COc1ccc(NS(=O)(=O)c2cccc([N+](=O)[O-])c2)c(OC)c1` was tested, and the displacement was -8.7%.
`COc1cc(/C=C2\SC(=S)N(c3ccc([N+](=O)[O-])cc3)C2=O)ccc1OC(=O)C12CC3CC(CC(C3)C1)C2` gave a displacement of 11.4%.
`COC(=O)c1ccc(Cl)c(NC(=O)NC(c2ccccc2)c2ccccc2)c1` gave a displacement of 12.4%.
`CCOc1ccc(N(CC(=O)Nc2ccc3c(c2)OCO3)S(C)(=O)=O)cc1` gave a displacement of 9.4%.
In the case of `COC(=O)c1ccc(NC2=C(Cl)C(=O)c3ccccc3C2=O)cc1`, the displacement is reported as 0.7%.
Work on `CCCc1nnc(NC(=O)Nc2ccc(Cl)cc2)s1` yielded a displacement of -2.9%.
With `Cc1ccc(C(=O)Nc2ccccc2C(=O)Nc2nc3ccccc3n2C)cc1` the displacement was -6.8%.
With `CCCCN(CCCC)C(=O)c1cccc([N+](=O)[O-])c1C` the displacement was -11%.
Molecule `S=C(NCC(c1ccccc1)c1ccccc1)Nc1ccc(Cl)cc1` has a displacement of -10.5%.
`NC(=O)c1cccc(NC(=O)c2ccc(-c3ccccc3)cc2)c1` showed a displacement of -2.8%.
Work on `COc1cc(C=C2C(=O)NC(=O)NC2=O)cc([N+](=O)[O-])c1O` yielded a displacement of 7%.
Work on `CC(Oc1ccccc1)C(=O)Nc1c(Cl)cccc1Cl` (stereo not given) yielded a displacement of 0.5%.
With `Oc1cccc(/C=N/Nc2nc(N3CCOCC3)nc(N3CCOCC3)n2)c1` the displacement was 10.8%.
With `Clc1cccc(OCCCN2CCOCC2)c1Cl` the displacement was -6.4%.
Work on `COc1ccc(C(=O)/C=C/c2ccc(-c3ccccc3[N+](=O)[O-])o2)cc1` yielded a displacement of 13.8%.
In the case of `CC1=C(C(=O)OC(C)C(C)(C)C)C(c2ccc(Cl)cc2)NC(=O)N1` (stereo not given), the displacement is reported as 1.9%.
`Cc1ccc(N2C(=O)C3C(C2=O)C2C=CC3C23CC3)cc1Cl` (stereo not given) gave a displacement of 6.2%.
`CCn1c(=O)c(-c2nc3ccccc3[nH]2)c(O)c2ccccc21` was tested, and the displacement was 26%.
For `CCOC(=O)CSc1nc(C)c2ccccc2n1`, the displacement was 8.6%.
`CCCCc1c(C)[nH]c2ccc(C(=O)O)cc2c1=S` was tested, and the displacement was 5.7%.
Work on `CC(=O)N1CCN(c2cc(N3CCCCC3)c(F)cc2[N+](=O)[O-])CC1` yielded a displacement of -1.1%.
For `O=[N+]([O-])c1cc(NS(=O)(=O)c2cc(Cl)ccc2Cl)ccc1Cl`, the displacement was -7.2%.
Work on `CCCNC(=O)c1cc2nc(-c3ccc(OC)cc3)cc(C(F)(F)F)n2n1` yielded a displacement of 14.5%.
Work on `COc1ccc(N(CC(=O)Nc2ccccc2C)S(=O)(=O)c2ccccc2)cc1Cl` yielded a displacement of 12.4%.
With `Cc1ccc(N2C(=O)C3C(C2=O)N2CCCN2C3c2ccccc2)cc1` (stereo not given) the displacement was 1.9%.
`O=C(Cc1ccccc1)NN=C1c2ccccc2-c2ccccc21` was tested, and the displacement was 5.3%.
`COCC(O)CSCc1ccccc1` (stereo not given) gave a displacement of -3.9%.
`O=C(Nc1ccc(Oc2ccccc2)cc1)Nc1cc(F)c(F)cc1Cl` was tested, and the displacement was -12.3%.
In the case of `CC(C)(C)c1cc2c(c(C(C)(C)C)c1)OC(c1ccco1)N2` (stereo not given), the displacement is reported as -7.4%.
In the case of `CNC(=O)c1c(NC(=O)c2ccccc2F)sc2c1CCCCC2`, the displacement is reported as -7.9%.
Work on `COc1c(Cl)cc(C(=O)Nc2ccc(N3CCCCC3)cc2)cc1Cl` yielded a displacement of 25.2%.
With `C=CC(=O)NC(NC(=O)C=C)c1ccc(OC)cc1` the displacement was 9.7%.
In the case of `CCOC(=O)c1ccc(NC(=O)CCCOc2ccccc2)cc1`, the displacement is reported as -18.5%.
In the case of `CCOC(=O)C1=C(C)N=c2s/c(=C\c3ccc([N+](=O)[O-])o3)c(=O)n2C1c1ccc(OC)cc1` (stereo not given), the displacement is reported as 7.1%.
`COc1ccc(C2CC(=O)C3=C(C2)Nc2ccccc2NC3c2cccs2)cc1OC` (stereo not given) was tested, and the displacement was -4.5%.
`O=C(CN(c1ccccc1)S(=O)(=O)c1ccccc1[N+](=O)[O-])Nc1cccc(Cl)c1` was tested, and the displacement was 13.2%.
`O=C1/C(=C/c2cccnc2)SC(=S)N1Cc1ccco1` gave a displacement of 10.7%.
Molecule `CCc1c(C)[nH]c2c(C)cccc2c1=O` has a displacement of -9.4%.
Work on `COc1ccc(Cl)cc1NC(=O)C1=C(C)NC(=O)NC1c1ccc(Br)cc1` (stereo not given) yielded a displacement of 14%.
`COC(=O)c1ccc(NC(=O)c2ccc(OCC(C)C)cc2)cc1` was tested, and the displacement was -7.7%.
Molecule `O=C(/C=C/c1cccc([N+](=O)[O-])c1)Nc1ccc(OC(F)(F)F)cc1` has a displacement of 4.8%.
Molecule `CSCCC(NC(=O)/C(=C\c1cccc([N+](=O)[O-])c1)NC(=O)c1ccccc1)C(=O)O` (stereo not given) has a displacement of 1.8%.
Molecule `CCOc1ccc(N(CC(=O)Nc2c(C)cccc2C)S(=O)(=O)c2ccc(SC)cc2)cc1` has a displacement of 9.6%.
`Oc1cccnc1-c1ccccc1` was tested, and the displacement was 2.1%.
Work on `O=C(Nc1ccccc1-c1ccccc1)c1ccc([N+](=O)[O-])cc1` yielded a displacement of 0.9%.
For `COC(=O)c1c(-c2ccc(C3CCCCC3)cc2)csc1N`, the displacement was -4%.
In the case of `CCOc1ccc(C(=O)COC(=O)c2ccccc2Br)cc1`, the displacement is reported as -0.5%.
`CSc1nnc2sc3ccccc3n12` gave a displacement of 0.4%.
Molecule `O=C(c1ccc([N+](=O)[O-])cc1Cl)N1CCN(c2ccccc2)CC1` has a displacement of -8.9%.
Molecule `O=C(Nc1nnc(-c2ccc([N+](=O)[O-])cc2)s1)c1cccs1` has a displacement of 8.7%.
For `CCN(CC)S(=O)(=O)c1ccc(NC(=O)C(F)(F)F)cc1`, the displacement was -0.3%.
`COc1ccc(N(CC(=O)NCC2CCCO2)S(=O)(=O)c2ccc(C)cc2)cc1` (stereo not given) gave a displacement of -0.5%.
In the case of `O=C(NC(c1ccccc1)C(Cl)Cl)c1ccccc1` (stereo not given), the displacement is reported as 2%.
Work on `O=C(CC1Sc2ccc(C(F)(F)F)cc2NC1=O)Nc1ccccc1` (stereo not given) yielded a displacement of 1.9%.
Molecule `O=[N+]([O-])c1ccc(C=Nc2cc3c(cc2Br)OCCO3)cc1` has a displacement of 13.2%.
`O=c1oc2c(CN3CCOCC3)c(O)ccc2cc1-c1nc2ccccc2s1` showed a displacement of 118%.
Work on `COc1ccccc1CNC(=O)c1ccc(CN(c2ccccc2)S(C)(=O)=O)cc1` yielded a displacement of 0.4%.
In the case of `Cc1nnc(N/N=C/c2cccc(Br)c2)[nH]c1=O`, the displacement is reported as -9.5%.
Molecule `O=C(/C=C/c1ccccc1Cl)Nc1ccc(F)c(F)c1` has a displacement of 9.7%.
For `O=C(CSc1cc(Cl)ccc1Cl)Nc1ccccc1Br`, the displacement was 12.9%.
In the case of `COc1ccccc1C(=O)Nc1ccc2c(c1)OCO2`, the displacement is reported as 4.5%.
Work on `CCCN(CCC)CCSc1nc(O)c(C(C)C)c(=O)[nH]1` yielded a displacement of -3.1%.
`COc1ccc(N2C(=O)NC(=O)/C(=C/c3cc(Cl)c(O)c(OC)c3)C2=O)cc1` showed a displacement of -15.5%.
`Cc1nc2cc(-c3ccccc3Cl)[nH]n2c(=O)c1C` showed a displacement of 13.6%.
Molecule `CCCCn1c(CCCO)nc2ccccc21` has a displacement of 7.2%.
`COc1ccc(N2C(=O)CC(N(CCc3ccccc3)C(=S)Nc3ccccc3)C2=O)cc1` (stereo not given) gave a displacement of -12.8%.
`COc1ccc(NC2=NC3(CCCC3)N=C(N)N2)cc1` showed a displacement of -6.7%.
`CCc1c(C)sc(NC(=O)C2CCCCC2C(=O)O)c1C(N)=O` (stereo not given) gave a displacement of 2.9%.
With `O=c1c(Oc2ccccc2Br)c(C(F)(F)F)oc2cc(O)ccc12` the displacement was 3%.
`Cc1ccc(-c2nc3cc(Cl)ccc3o2)cc1NC(=O)C(Cl)(Cl)Cl` was tested, and the displacement was 2.9%.
In the case of `O=C1C(=O)N(c2ccccn2)C(c2cccnc2)/C1=C(/O)c1ccc(Br)cc1` (stereo not given), the displacement is reported as -25.5%.
